Experimental data as given in PubChem BioAssay AID624418 (National Center for Advancing Translational Sciences (NCATS), 2012).
Hit rate of the full screen: of about 410,000 compounds, about 530 (0.13%) were called active. The shares of active, inactive and inconclusive entries below differ from those in the screen. Calls follow the shape of the dose curve; as a rule, active = well fitted inhibition curve with a large enough effect; inconclusive = small, poorly fitted or top-dose-only effect, or another doubt; inactive = no such curve, though single readings can be large or run the other way. Potencies of inconclusive entries are doubtful fits and often do not repeat.

Assay: qHTS of GLP-1 Receptor Inverse Agonists: Cytotox Screen
Settings: HEK293 cAMP-luciferase reporter cells, luminescence, 24 h; activity change, negative = inhibition: at 38.3 µM (top of the series) unless noted
How it was run: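 1536-well qHTS counterscreen of the MLSMR; 200 cells/uL, 12 h pre-incubation, 23 nL cpd, 24 h at 37 deg C 5% CO2, luciferase detection reagent, 12 min RT, luminescence. Inhibition = undesired.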
% is scaled to controls: 0 for no effect and ±100 for the full control effect; potency is read from the fitted curve at half-maximal effect.

Row | SMILES | Potency | activity change, negative = inhibition
1 | C#CCn1cc(/C=N/Nc2nc3ccccc3[nH]2)c2ccccc21 | inconclusive: 28.2 µM [inhibitor, single point] | –
2 | CC(NCc1ccc([N+](=O)[O-])cc1)C1COc2ccccc2O1 (stereo not drawn) | – | inactive: 32.6%
3 | Nc1nc(SCCC(F)=C(F)F)n[nH]1 | – | inactive: -4.55%
4 | O=C1NC(=O)N(Cc2ccccc2)C(=O)/C1=C/C=C/c1ccco1 | inconclusive: 12.6 µM [inhibitor, partial curve, poor fit] | –
5 | CCn1c(=O)oc2cc(NC(=O)CCl)ccc21 | inconclusive: 28.2 µM [inhibitor, single point] | –
6 | CN(C)c1ccc(/C=C/c2ccc3ccccc3[n+]2C)cc1 | inconclusive: 2.82 µM [inhibitor, partial curve, poor fit] | –
7 | Cc1cc(C)cc(NC(=S)NC2CC3CCCC(C2)N3Cc2cccs2)c1 (stereo not drawn) | inconclusive: 22.4 µM [inhibitor, single point] | –
8 | CCOc1cc2c(cc1OCC)-n1cccc1C(c1ccccc1O)NC2 (stereo not drawn) | inconclusive: 3.55 µM [inhibitor, full curve, poor fit] | –
9 | O=C(c1cc(F)ccc1F)C1CCCN(Cc2cc(Cl)ccc2O)C1 (stereo not drawn) | – | inactive: -6.47%
10 | Oc1ccc(-c2csc(-c3ccccc3)n2)cc1O | inconclusive: 10 µM [inhibitor, single point] | –
11 | COc1ccc(Oc2cc(NC(=O)c3nn(C)cc3[N+](=O)[O-])cc([N+](=O)[O-])c2)cc1 | inconclusive: 11.2 µM [inhibitor, partial curve, poor fit] | –
12 | S=C(NCCC(c1ccccc1)c1ccccc1)Nc1ccc(Cl)cc1 | inconclusive: 11.2 µM [inhibitor, partial curve, poor fit] | –
13 | CCOC(=O)[C@]12Cc3cc(C)ccc3[C@H]1N(C(C)C)C(=O)c1ccccc12 | inconclusive: 28.2 µM [inhibitor, single point] | –
14 | COc1ccc(C2NCc3ccc4c(c3-n3cccc32)OCO4)cc1OC (stereo not drawn) | inconclusive: 12.6 µM [inhibitor, single point] | –
15 | O=C(Cc1c(-c2ccccc2)nc2ccc(Br)cn12)N1CCCC1 | – | inactive: 1.02%
16 | O=C(Nc1nnc(-c2ccco2)o1)c1ccc2ccccc2c1 | inconclusive: 28.2 µM [inhibitor, single point] | –
17 | CCc1ccc(/C=N/NC(=O)c2cc(-c3cccc([N+](=O)[O-])c3)n[nH]2)cc1 | inconclusive: 14.1 µM [inhibitor, single point] | –
18 | Brc1ccc2c(c1)C(OC1CN3CCC1CC3)c1ccccc1CS2 (stereo not drawn) | active: 10 µM | –
19 | CC(=O)Nc1ccc(NC(=O)C(C)OC(=O)c2ccccc2C(=O)c2ccc(Cl)c([N+](=O)[O-])c2)cc1 (stereo not drawn) | inconclusive: 28.2 µM [inhibitor, single point] | –
20 | O=C1CCCC2=C1C(c1ccccc1)C1C(=O)c3ccccc3C1=N2 (stereo not drawn) | inconclusive: 10 µM [inhibitor, partial curve] | –
21 | O=C(CSc1ccccc1)N1CCC2(CC1)OCCO2 | inconclusive: 3.55 µM [inhibitor, full curve, poor fit] | –

Row | SMILES | Potency | activity change, negative = inhibition
22 | O=C1NC(=O)N(Cc2ccc(F)cc2)C(=O)/C1=C\C=C\c1ccco1 | inconclusive: 4.47 µM [inhibitor, partial curve] | –
23 | COc1ccc(-n2cnc3cc(C(=O)N4CCC5(CC4)OCCO5)ccc32)cc1 | inconclusive: 5.62 µM [inhibitor, full curve, poor fit] | –
24 | N#CC(C#N)=NNc1ccc([N+](=O)[O-])cc1 | inconclusive: 8.91 µM [inhibitor, partial curve, poor fit] | –
25 | O=C1NC(=O)N(c2cccc(Br)c2)C(=O)/C1=C/c1ccsc1 | inconclusive: 28.2 µM [inhibitor, single point] | –
26 | CCN1CCN(Cc2ccc(NC(=O)c3cc(NC(=O)c4cc(-c5ccc(OC)cc5)n[nH]4)cc(OC)c3)cc2C(F)(F)F)CC1 | inconclusive: 22.4 µM [inhibitor, single point] | –
27 | Cc1ccc(-c2cc(-c3ccccc3)nc(N/N=C/c3cccnc3)n2)cc1 | inconclusive: 28.2 µM [inhibitor, single point] | –
28 | CCOc1ccc(-c2c(C)n(-c3ccc(OCC)cc3)c3[n+]2CCCCC3)cc1 | inconclusive: 1.12 µM [inhibitor, full curve, poor fit] | –
29 | Cc1cccc(N2CCN(CCc3ccccc3)CC2)c1C | inconclusive: 12.6 µM [inhibitor, single point] | –
30 | COC(=O)NC(NC(=S)Nc1ccc([N+](=O)[O-])cc1)C(Cl)(Cl)Cl (stereo not drawn) | inconclusive: 12.6 µM [inhibitor, single point] | –
31 | CCC(=O)NC1=C(Cl)C(=O)C(NC(=O)CC)=C(Cl)C1=O | inconclusive: 28.2 µM [inhibitor, single point] | –
32 | CCOP(=O)(OCC)C(O)c1ccc(N(C)C)cc1 (stereo not drawn) | inconclusive: 11.2 µM [inhibitor, single point] | –
33 | COC(COC(N)=O)C1=C(N2CC2)C(=O)C(C)=C(N2CC2)C1=O (stereo not drawn) | inconclusive: 7.94 µM [inhibitor, partial curve, poor fit] | –
34 | CC(C)c1ccc(N2C(=O)NC(=O)/C(=C/C=C/c3ccco3)C2=O)cc1 | – | inactive: -8.04%
35 | COc1cccc(/C=N/Nc2ccc([N+](=O)[O-])cc2)c1O | inconclusive: 22.4 µM [inhibitor, single point] | –
36 | C(=N\Nc1ncnc2sc3c(c12)CCC3)/c1ccncc1 | inconclusive: 10 µM [inhibitor, partial curve, poor fit] | –
37 | COc1ccccc1OCC(=O)N/N=C/C=C/c1ccc([N+](=O)[O-])o1 | inconclusive: 28.2 µM [inhibitor, single point] | –
38 | COc1ccc(C(CNC(=O)c2ccc3c(c2)CCC3)N(C)C)cc1 (stereo not drawn) | – | inactive: -2.92%
39 | COC(=O)C1=C(C(=O)OC)SC2(S1)C(C(=O)OC)=C(C(=O)OC)Sc1c2ssc1=O | inconclusive: 2.24 µM [inhibitor, partial curve, poor fit] | –
40 | COc1ccc(-c2ccc(/C=C3/C(=N)N4C(C)=CSC4=NC3=O)o2)c([N+](=O)[O-])c1 | inconclusive: 12.6 µM [inhibitor, single point] | –
41 | CCCCCN=C(N)N/N=C/c1c[nH]c2ccc(OC)cc12 | inconclusive: 15.8 µM [inhibitor, single point] | –
42 | C=CCc1c(C)nc(C)nc1N/N=C/c1ccc(N(C)C)cc1 | inconclusive: 14.1 µM [inhibitor, single point] | –

Row | SMILES | Potency | activity change, negative = inhibition
43 | CN1CCN(c2ccc(N)c(N3CCN(C)CC3)c2)CC1 | inconclusive: 8.91 µM [inhibitor, partial curve] | –
44 | CCOc1ccc(NC(=S)NCCCc2ccccc2)cc1 | inconclusive: 14.1 µM [inhibitor, single point] | –
45 | CC1(C)CN=C(NCc2ccccc2Cl)S1 | inconclusive: 28.2 µM [inhibitor, single point] | –
46 | Cn1c(=O)oc2cc(NC(=O)CCl)ccc21 | inconclusive: 11.2 µM [inhibitor, single point] | –
47 | Cc1ccc(C)c(NC(=O)C(Sc2nc3ccc(C)cc3[nH]2)c2ccccc2)c1 (stereo not drawn) | inconclusive: 10 µM [inhibitor, single point] | –
48 | Fc1cccc(F)c1CN1CCN(c2ccc(Cl)cc2)CC1 | – | inactive: -11.5%
49 | COc1ccc(CN2CCC(n3nccc3NC(=O)CCOc3ccccc3)CC2)cc1C | inconclusive: 12.6 µM [inhibitor, single point] | –
50 | O=C1NCN(c2ccccc2)C12CCN(C(c1ccccc1OC(F)(F)F)c1nnnn1Cc1ccccc1)CC2 (stereo not drawn) | inconclusive: 11.2 µM [inhibitor, single point] | –
51 | C#CCOc1cc(C2C3=C(COC3=O)Nc3cc4c(cc32)OCO4)ccc1OC (stereo not drawn) | inconclusive: 0.316 µM [inhibitor, full curve, poor fit] | –
52 | O=C1NC(=O)C(=Cc2ccc(SC3CCCCC3)o2)C(=O)N1 | inconclusive: 10 µM [inhibitor, single point] | –
53 | CCOC(=O)C1=C(C)C(c2cccc(Oc3ccccc3)c2)NC(=S)N1 (stereo not drawn) | inconclusive: 28.2 µM [inhibitor, single point] | –
54 | Cc1ccc(NC(=O)c2nc(S(=O)(=O)Cc3ccccc3)ncc2Cl)cc1 | inconclusive: 28.2 µM [inhibitor, single point] | –
55 | CCCCCSc1cc(OC)c(CCNC)cc1OC | inconclusive: 28.2 µM [inhibitor, single point] | –
56 | N#CC(C#N)=NNc1ccc2cn[nH]c2c1 | inconclusive: 28.2 µM [inhibitor, single point] | –
57 | Brc1ccc2c(c1)OCCOCCOc1cc(Br)ccc1OCCOCCOCCO2 | inconclusive: 10 µM [inhibitor, partial curve, poor fit] | –
58 | Cc1ccc(N=Nc2c(O)[nH]c(=O)[nH]c2=O)cc1S(=O)(=O)Nc1ccc(Br)cc1 | inconclusive: 10 µM [inhibitor, single point] | –
59 | CCN1/C(=C/C(C)=C/c2sc3ccccc3[n+]2CC)Sc2ccccc21 | active: 5.01 µM | –
60 | CC(C)(C)n1nnnc1C(CCc1ccccc1)N1CCC(n2c(=O)[nH]c3ccccc32)CC1 (stereo not drawn) | inconclusive: 20 µM [inhibitor, single point] | –
61 | COc1ccccc1CN1CCC(n2nccc2NC(=O)CCOc2ccccc2)CC1 | inconclusive: 12.6 µM [inhibitor, single point] | –
62 | COc1cc(/C=C2/CCC/C(=C\c3cc(O)c(OC)c(Cl)c3)C2=O)cc(Cl)c1O | inconclusive: 7.08 µM [inhibitor, partial curve] | –
63 | c1cc2c(cc1NC1=NCCO1)CCCC2 | inconclusive: 28.2 µM [inhibitor, single point] | –
